In PMC4336329 (PLoS ONE, 2015):
Hit rate of the full screen: of about 310,000 compounds, about 14,000 (4.5%) showed an effect of 50% or more. Effects have a minus sign here. The list shows a part of the results.

What follows are compounds tested against human ether-à-go-go-related gene (hERG) potassium channel (human, UniProt Q12809) (assay: primary screen, population patch clamp on CHO cells stably expressing hERG).
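Note: peak tail current of the secondary pulse compared with the same well before compound.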

Chain of human ether-à-go-go-related gene (hERG) potassium channel (Q12809 whole entry, looked up): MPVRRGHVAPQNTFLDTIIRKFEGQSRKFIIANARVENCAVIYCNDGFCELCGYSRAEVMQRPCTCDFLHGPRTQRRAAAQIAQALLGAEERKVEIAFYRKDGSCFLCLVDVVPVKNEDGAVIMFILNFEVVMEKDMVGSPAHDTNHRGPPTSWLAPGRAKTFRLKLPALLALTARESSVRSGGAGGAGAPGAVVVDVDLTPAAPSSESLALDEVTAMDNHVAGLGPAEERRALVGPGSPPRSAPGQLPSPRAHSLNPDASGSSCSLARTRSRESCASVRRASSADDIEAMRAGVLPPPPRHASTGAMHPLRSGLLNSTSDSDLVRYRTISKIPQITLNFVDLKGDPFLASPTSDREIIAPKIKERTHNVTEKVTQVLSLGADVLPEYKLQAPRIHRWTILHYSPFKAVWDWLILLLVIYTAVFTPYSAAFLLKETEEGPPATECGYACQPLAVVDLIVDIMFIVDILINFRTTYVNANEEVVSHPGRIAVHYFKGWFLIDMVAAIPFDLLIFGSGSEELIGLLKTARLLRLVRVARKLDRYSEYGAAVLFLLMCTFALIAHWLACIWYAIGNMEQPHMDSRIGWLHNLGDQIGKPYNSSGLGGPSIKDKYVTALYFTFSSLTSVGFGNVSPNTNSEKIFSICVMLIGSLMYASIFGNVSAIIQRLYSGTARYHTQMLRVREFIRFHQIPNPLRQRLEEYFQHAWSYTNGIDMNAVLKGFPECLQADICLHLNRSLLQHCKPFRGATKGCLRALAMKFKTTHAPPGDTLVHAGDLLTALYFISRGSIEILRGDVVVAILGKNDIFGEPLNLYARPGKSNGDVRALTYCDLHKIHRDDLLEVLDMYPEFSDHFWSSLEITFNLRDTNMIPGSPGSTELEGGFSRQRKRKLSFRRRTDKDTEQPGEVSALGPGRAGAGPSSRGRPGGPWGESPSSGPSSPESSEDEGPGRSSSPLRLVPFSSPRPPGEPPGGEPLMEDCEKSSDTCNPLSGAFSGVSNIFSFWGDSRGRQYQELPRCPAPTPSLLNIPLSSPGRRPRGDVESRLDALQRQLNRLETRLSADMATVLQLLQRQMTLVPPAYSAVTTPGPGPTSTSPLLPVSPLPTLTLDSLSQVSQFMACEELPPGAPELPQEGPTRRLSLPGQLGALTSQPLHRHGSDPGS

SMILES	hERG current change (%, negative = inhibition) at 10uM [%]
Cc1cccc(S(=O)(=O)Nc2nc3ccccc3nc2OC(C)C)c1	20.6
COc1cccc(CC(=O)Nc2cc(C(F)(F)F)ccc2N2CCCC2)c1	5.15
CC(NC(=O)CSCc1ccc(Br)cc1)c1ccccc1 (stereo not drawn)	-9.55
Cc1cccc(-n2ncc3c(NCc4cccnc4)ncnc32)c1	-41.1
O=C(COC(=O)c1ccc(O)cc1O)Nc1ccc(Cl)cn1	3.23
Cc1ccc(-c2nnc(SCC(=O)NC(=O)Nc3ccc(C)cc3C)n2N)cc1	3.49
COc1ccc2c(=O)c(-c3ccccc3C)c(C)oc2c1	-15.8
CC(NC(=O)COC(=O)C1CCN(S(=O)(=O)c2ccccc2C(F)(F)F)CC1)c1ccccc1 (stereo not drawn)	-5.68
CCN(CC)CCCNC(=O)Cc1c(C(=O)O)n(C)c2ccccc12	14.6
CC1(C)C(c2ccccc2)=[N+]([O-])CN1O	-5.85
COc1ccc(S(=O)(=O)Nc2c(C)nc3nc(C)[nH]n3c2=O)cc1	30.4
COc1cccc(C(c2sc3nc(C)nn3c2O)N2CCC3(CC2)OCCO3)c1 (stereo not drawn)	1.93
O=C(O)CSCC(=O)NCc1cccc(C(F)(F)F)c1	-4.98
CS(=O)(=O)Nc1ccccc1C(=O)Nc1cc(Cl)cc(Cl)c1	-0.347
O=C(NN1CCOCC1)c1cccc(COc2cccc(Br)c2)c1	-0.949
O=C(CSc1n[nH]c(=O)[nH]c1=O)N1CCCCCC1	-3.56
O=C(NN=C1C2CC3CC(C2)CC1C3)c1ccccc1O	2.43
Cl.c1ccc(CN2CCN(c3nc(N4CCOCC4)c4ccccc4n3)CC2)cc1	-70.3
CCOC(=O)C1CCCN(C(=O)c2ccc(C(=O)c3ccccc3)cc2)C1 (stereo not drawn)	-49.9
Cc1ccc(NC(=O)CN(C)CC(=O)Nc2ccccc2C(=O)Nc2ccccc2)cc1	-33.1
CC(C)(C)c1ccc(-c2nnc(N)o2)cc1	7.37
Cc1cc(N2CCCC2)nc2c(C)cccc12	-21.6

SMILES	hERG current change (%, negative = inhibition) at 10uM [%]
O=C(O)CCN1C(=O)c2ccc(Oc3ccc4c(c3)C(=O)N(CCC(=O)O)C4=O)cc2C1=O	6.2
Cc1cc(=O)oc2c3c(cc(OCC(=O)N[C@@H](CC(C)C)C(=O)O)c12)OC(C)(C)CC3	2.76
N#Cc1c(N)oc(-c2ccco2)c1-c1ccco1	1.98
CCCc1nn(C(=O)c2ccccc2)c2c1C(=O)CC(C)(C)C2	11.5
O=C(CC1NC2CCCCC2NC1=O)Nc1ccc2c(c1)OCO2 (stereo not drawn)	15.6
COc1cc(C2OC(c3cc(OC)c(OC)c(OC)c3)C(C)C2C)cc(OC)c1OC (stereo not drawn)	0.51
COc1ccc(NC(=O)c2ccc(S(=O)(=O)N3CCOCC3)cc2)c(OC)c1	-4.96
COc1ccc(C(=O)Nc2ccccc2N2CCCC2)cc1S(=O)(=O)N1CCOCC1	-27.2
CCn1ncc(/C=N/N=C2\CCC3C4CCc5cc(O)ccc5C4CCC23C)c1C (stereo not drawn)	2.51
COc1ccc(CC(=O)OCC(=O)NCc2ccco2)cc1	10.6
Cn1c(SCC(N)=O)nnc1-c1ccc(C(C)(C)C)cc1	19.8
Cc1cc(SCc2cc(=O)n3ccsc3n2)nc2ccccc12	-12.1
O=C(NCc1ccc(Cl)cc1)C1CCN(S(=O)(=O)c2cc([N+](=O)[O-])ccc2Cl)CC1	-59
Cc1ccc(Cn2c(SC3CCOC3=O)nc3ccccc3c2=O)cc1 (stereo not drawn)	-42.9
O=C(Nc1ccc(O)cc1)/C(=C\c1ccncc1)NC(=O)c1ccccc1	15.4
CCN(CC)S(=O)(=O)c1cccc(NC(=O)C(=O)c2c(-c3ccccc3)cc3ccccn23)c1	4.58
CCOCCCNC(=O)c1cc(-c2cccnc2)nc2ccc(S(=O)(=O)N3CCC(C)CC3)cc12	12.9
O=C(CN1CCN(c2ccc(F)cc2)CC1)Nc1ccccc1[N+](=O)[O-]	-22.7
Cc1ccccc1C(=O)OC1OC(=O)C(Cl)=C1Nc1ccc(C(=O)O)cc1 (stereo not drawn)	24.4
COc1ccc(N2CCN(C(=O)c3nc4nc(C)cc(C)n4n3)CC2)cc1	9.69
C=CCNS(=O)(=O)c1cccc2cc(C(=O)O)c(O)cc12	13.9
Cc1ccccc1C(=O)N/C(=C/c1ccc(-c2cccnc2Cl)o1)C(=O)NCCCN1CCN(C)CC1	8.09

SMILES	hERG current change (%, negative = inhibition) at 10uM [%]
CC(O)c1cc2c(cc1NC(=O)c1cnn3c1NC(c1ccco1)CC3C(F)(F)F)OCO2 (stereo not drawn)	15.3
O=C(NC1CCS(=O)(=O)C1)N1CCCCC1 (stereo not drawn)	13.2
Cc1c(Cl)cccc1NC(=S)N1CCCN(Cc2ccc(F)cc2)C1	-16.3
O=C(O)Cc1ccc(NC(=S)Nc2cccc(Cl)c2Cl)cc1	7.8
CC(C)Cn1c(SCC(=O)Nc2cccc(S(N)(=O)=O)c2)nc2ccccc2c1=O	5.27
CCOC(=O)c1sc(Nc2ccc(OCC)cc2)nc1C	6.39
COc1ccc(NS(=O)(=O)c2cccc(C(=O)N3CCCCCCC3)c2)cc1	-28.9
Cc1nc(-c2cccs2)sc1C(=O)O	8.58
CCN(C(=O)c1ccc(S(=O)(=O)N2CCCCC2)cc1)C1CCS(=O)(=O)C1 (stereo not drawn)	-16.1
CC(C)CCN1C(=O)c2ccc(C(=O)Nc3cc(C(=O)O)cc(C(=O)O)c3)cc2C1=O	-3.73
CCCCC(=O)Nc1cccc(-c2csc(-c3ccccc3)n2)c1	3.1
COc1ccc(C)cc1N(C(=O)c1ccc(C#N)cc1)C1=NC(C)(C)CS1	6.7
CS(=O)(=O)N(CCc1ccccc1)CC(=O)NCc1ccccc1	2.39
COc1ccccc1C(=O)O/N=C1/CCCc2c1ccc(OC)c2[N+](=O)[O-]	1.18
COc1cc(NC(=O)c2ccccc2[N+](=O)[O-])c(C(=O)O)cc1OC	20.1
O=S(=O)(c1ccccc1)N1CCC(=NO)CC1	11.1
O=C(O)c1sccc1S(=O)(=O)c1ccccc1	-0.213
CCc1ccc(-c2nc(SCC(=O)N(CC)C3CCS(=O)(=O)C3)n[nH]2)cc1 (stereo not drawn)	-8.29
CC(=O)OCC(=O)Nc1ccccc1OC(F)F	14.4
COc1cc(OC)cc(C(=O)OCC(=O)NCc2ccco2)c1	2.94
CCc1nnc(NC(=O)CSc2nnc(-c3ccco3)n2CC)s1	13.7
CCOc1ccc(/C=C(\C#N)C(=O)Nc2ccccn2)cc1	6.14

SMILES	hERG current change (%, negative = inhibition) at 10uM [%]
Cc1nn(-c2cccc(C(F)(F)F)c2)c(Cl)c1/C=N/Nc1cccc(C(=O)O)c1	15.5
O=C(O)/C=C/C(=O)NCCC(c1ccccc1)c1ccccc1	17.1
N#C/C(=C\c1cccs1)C(=O)c1ccccc1	4.27
CC(C)(C)OC(=O)[C@H](CCCC[NH3+])NC(=O)c1nc[nH]c1C(=O)NCCCCC[NH3+].[Cl-]	2.58
COc1ccc(OC)c(-c2csc(NC(=O)c3ccccc3F)n2)c1	12.6
O=C(CCl)Nc1cc2[nH]c(=O)[nH]c2cc1Br	11.6
NS(=O)(=O)c1ccc(CCNc2nc(CN3CCOCC3)nc3sc4c(c23)CCC4)cc1	-31.2
COc1cc(/C(C)=N/NC(=O)c2ccc(CSc3nncn3C)cc2)cc(OC)c1OC	5.15
CC(C)c1ccc(-c2csc3nc[nH]c(=O)c23)cc1	10.8
COc1ccc(N(CC(=O)Nc2ccc3c(c2)OCO3)S(=O)(=O)c2ccccc2)cc1	5.21
O=C(CCc1nnc(Cc2ccc3c(c2)OCO3)o1)NCCc1ccccc1Cl	-6.86
COc1ccc(Oc2nc(-c3cccnc3)nc3ccccc23)cc1	2.76
CCCCc1nnc(NC(=O)C2CCN(c3ncnc4sc(C)c(C)c34)CC2)s1	16.6
O=C(c1cc2cc(Br)ccc2o1)N1CCN(c2ccccc2)CC1	13.7
O=C(NCCCn1ccnc1)C(=O)NCC1OCCN1S(=O)(=O)c1ccc(Br)cc1 (stereo not drawn)	-6.31
O=C(O)C1CCN(c2ccccc2[N+](=O)[O-])CC1	3.84
COc1ccc2c(c1)CCc1c(C(=O)NCCc3ccc(OC)c(OC)c3)noc1-2	4.59
CSc1ccc(S(=O)(=O)NCCCn2ccnc2)cc1	-16.6
COc1ccc(C(=O)NC(C)Cc2cnccn2)cc1OC1CCN(C(C)C)CC1 (stereo not drawn)	18.4
O=c1cc(/N=C/c2coc3c(ccc4ccccc43)c2=O)[nH]c(=S)[nH]1	11
O=[N+]([O-])c1cccc(CN(CCO)Cc2ccccc2)c1	-12.6
